Paper PMC7819943, “Rice protein-binding microarrays: a tool to detect cis-acting elements near promoter regions in rice”
This is one part of the list.

These sequences were tested against T1, OsWOX13 (Oryza sativa, UniProt Q5QMM3 1-267) (assay: protein-binding microarray (RPBM); PBS, 2% BSA, 51.3 ng/ul salmon testes DNA, 50 uM zinc acetate, 200 nM TF, 25 C, 1 h; high values mean tight binding). Details: protein: recombinant; tags: N-terminal polyhistidine and DsRed monomer fusion (pET32a); label: CyDye5-dUTP incorporated in the synthesized complementary strand; 3' TTTTT single-stranded linker to array surface; dsDNA, one strand shown.
T1 sequence: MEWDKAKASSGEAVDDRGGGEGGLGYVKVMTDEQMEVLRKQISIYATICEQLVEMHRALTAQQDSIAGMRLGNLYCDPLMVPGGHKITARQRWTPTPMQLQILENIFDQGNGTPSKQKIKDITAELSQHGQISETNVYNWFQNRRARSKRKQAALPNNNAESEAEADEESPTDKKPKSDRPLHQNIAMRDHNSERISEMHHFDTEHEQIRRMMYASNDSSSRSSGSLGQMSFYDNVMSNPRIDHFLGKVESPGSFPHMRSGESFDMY
Outline: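 Binding signal here means per-feature fluorescence intensity in arbitrary units. The values were read on an Axon 4000B scanner after a custom Agilent array, double-stranded by primer extension with Cy5-dUTP, was incubated with 200 nM protein at 25 °C for 1 h in PBS with 2% BSA, salmon testes DNA and 50 µM zinc acetate, then washed. The proteins were transcription factors with an N-terminal polyhistidine tag and DsRed, expressed in E. coli BL21-CodonPlus and purified on Ni–NTA.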
For “TGTTATTTCAATCTCAGGATTGAGTGCAAGCAATCTGTTTCGGAGTCACCTAGTGCAG”, the binding signal was 4210 fluorescence intensity (a.u.).
“GAGTTTATAAATTGAGATATATCCGTCCTCCATTCTCAGGCGGAGTCACCTAGTGCAG” was tested, and the binding signal was 6950 fluorescence intensity (a.u.).
With “ACAAGTTGATGGGGACACTTTTCTTATGTAGTATATAATTCGGAGTCACCTAGTGCAG” the binding signal was 3270 fluorescence intensity (a.u.).
For “TGCTTTATCAGTATAATTGGCAGTTCTCCTGCCTGTTCATCGGAGTCACCTAGTGCAG”, the binding signal was 7320 fluorescence intensity (a.u.).
For “ACAAATTAAACTCTAACTAGTATACGTATATTCACAGTCACGGAGTCACCTAGTGCAG”, the binding signal was 15700 fluorescence intensity (a.u.).
With “ATTAACATAATTGCAATGTAAGTATTAAAATTACAATGTACGGAGTCACCTAGTGCAG” the binding signal was 20200 fluorescence intensity (a.u.).
With “CAAATTGGTAAACTTGCAATAACATGATCCAATTAACCCACGGAGTCACCTAGTGCAG” the binding signal was 8100 fluorescence intensity (a.u.).
With “TCCATAATTACTAGTACTCCTAGATTGCAGAGTAGATAGGCGGAGTCACCTAGTGCAG” the binding signal was 19800 fluorescence intensity (a.u.).
With “TTCGGGATTGACTGCTTCGGCCCGGTTCCTCGACGGTAAGCGGAGTCACCTAGTGCAG” the binding signal was 24100 fluorescence intensity (a.u.).
For “CATTTCTATTATTATTGAACAATTTAATTGCGAGGGCGAGCGGAGTCACCTAGTGCAG”, the binding signal was 5370 fluorescence intensity (a.u.).
“GTGATTGATGCCGCCTGGGTTAGTTCAACTATTGCTGCATCGGAGTCACCTAGTGCAG” was tested, and the binding signal was 55400 fluorescence intensity (a.u.).
In the case of “TTCTGATGAAGAAGACGATGATTATGATAAGAGACGCCGGCGGAGTCACCTAGTGCAG”, the binding signal is reported as 6650 fluorescence intensity (a.u.).
With “TATCATCAATCCGCTAATTAACTGACAACGCATATTGGAGCGGAGTCACCTAGTGCAG” the binding signal was 29400 fluorescence intensity (a.u.).
With “ACATAGATTTGGTCCTGACATTAGTTAGAATCTTCAGATTCGGAGTCACCTAGTGCAG” the binding signal was 4000 fluorescence intensity (a.u.).
For “CCATGACCCATCAATCCATCATCCCTTTCATCTCTCATCTCGGAGTCACCTAGTGCAG”, the binding signal was 3420 fluorescence intensity (a.u.).
In the case of “CTGAATTTCAATTAAAAGGAAGTTGGAGTATAGGGACTTTCGGAGTCACCTAGTGCAG”, the binding signal is reported as 6510 fluorescence intensity (a.u.).
“TAAAACATGATTTGAAAAGTTTTGTTAAAATGAAGGGTAACGGAGTCACCTAGTGCAG” was tested, and the binding signal was 6100 fluorescence intensity (a.u.).
“TATTTAAATTGGATAATTTCTTATGGGTAGATTTAACTCACGGAGTCACCTAGTGCAG” was tested, and the binding signal was 27000 fluorescence intensity (a.u.).
In the case of “CCTCAAGGACAAATGATTGATTTACCTATTCAAAGCAATTCGGAGTCACCTAGTGCAG”, the binding signal is reported as 30500 fluorescence intensity (a.u.).
With “TGAATTACTCAATTGAATTGGTGTTATGTAATAAACTGCTCGGAGTCACCTAGTGCAG” the binding signal was 5970 fluorescence intensity (a.u.).
In the case of “TGAAAGAAGAGATGATTGGGAAACACCATTAATAGGGTGGCGGAGTCACCTAGTGCAG”, the binding signal is reported as 10500 fluorescence intensity (a.u.).
In the case of “TCAGAGTGGCAATCAGTAGGTCGTCCCAGGGCCAGCGCCGCGGAGTCACCTAGTGCAG”, the binding signal is reported as 21900 fluorescence intensity (a.u.).
For “AGTAACATCAATTTTATACGATTGATCTTTCTACTTTTCTCGGAGTCACCTAGTGCAG”, the binding signal was 18600 fluorescence intensity (a.u.).
For “TAGTATACACAACCAATCATCGCGATCCGCCCTCGCAAACCGGAGTCACCTAGTGCAG”, the binding signal was 9460 fluorescence intensity (a.u.).
For “CTCTCTTAATTTATCGGCAATTCGGCAGAGCTATGAGGCCCGGAGTCACCTAGTGCAG”, the binding signal was 18900 fluorescence intensity (a.u.).
“CCGTTGATGAGACAAACCAAACAGTAGCGTGCAGGGCATCCGGAGTCACCTAGTGCAG” was tested, and the binding signal was 11700 fluorescence intensity (a.u.).
“GGTCAATCAAATACAGATTCAAAGAGGCACAGATGTGGATCGGAGTCACCTAGTGCAG” was tested, and the binding signal was 16200 fluorescence intensity (a.u.).
For “TCTAATTTCAACTAAACTTACACATACAAACAGGCCCTTACGGAGTCACCTAGTGCAG”, the binding signal was 7140 fluorescence intensity (a.u.).
In the case of “ATGATTAATACTTAATTAATTATGTGCGCTCATGGATCACCGGAGTCACCTAGTGCAG”, the binding signal is reported as 56400 fluorescence intensity (a.u.).
For “ACCTAACATCTAATTATATAGTTACCATCGTACAACGTTACGGAGTCACCTAGTGCAG”, the binding signal was 13800 fluorescence intensity (a.u.).
With “TTAATGGCCCATCAATCATTCGGTGTATTATGCAAGAGCGCGGAGTCACCTAGTGCAG” the binding signal was 9750 fluorescence intensity (a.u.).
With “TTTTAGATGATGTGACTTAATGCATATAAAACTTTTGGTCCGGAGTCACCTAGTGCAG” the binding signal was 6460 fluorescence intensity (a.u.).
For “ACAATTTAAGCATGATTATGATCAAAGCTTAAATGAGAGGCGGAGTCACCTAGTGCAG”, the binding signal was 12800 fluorescence intensity (a.u.).
“TGATATATGATTGTAGAACTTAAAAGTGTACTAATGTGGTCGGAGTCACCTAGTGCAG” was tested, and the binding signal was 14200 fluorescence intensity (a.u.).
In the case of “TTGTTAACACGCTTAATTTTAAAGCTGTTAGCATGTTAAACGGAGTCACCTAGTGCAG”, the binding signal is reported as 5010 fluorescence intensity (a.u.).
“CGCAAAATCTAATTGATGCTATGTTATCAATTTGACAACACGGAGTCACCTAGTGCAG” was tested, and the binding signal was 19800 fluorescence intensity (a.u.).
In the case of “TTTTCCTATCATTTGATTTATTGTTAAATATACTTTTATGCGGAGTCACCTAGTGCAG”, the binding signal is reported as 9190 fluorescence intensity (a.u.).
“ATAATGCATGTTAATTTTGTGCGTACTATCATAGCTTCAGCGGAGTCACCTAGTGCAG” was tested, and the binding signal was 5810 fluorescence intensity (a.u.).
“TGGTACTAATTATTTTGTAAAATATGTTGGGAGCAAGGAACGGAGTCACCTAGTGCAG” was tested, and the binding signal was 8320 fluorescence intensity (a.u.).
In the case of “ACTCGTATGATTAGGAATGGGCTTGGAGCCTTGGAGTGTCCGGAGTCACCTAGTGCAG”, the binding signal is reported as 15100 fluorescence intensity (a.u.).
With “TATCAATCCGAGATGGACAACAAATCTGTATAATCCTAAGCGGAGTCACCTAGTGCAG” the binding signal was 4740 fluorescence intensity (a.u.).
“GAAAACTGAATATTGATGATATAGAGATCAGTTCTAGATTCGGAGTCACCTAGTGCAG” was tested, and the binding signal was 13300 fluorescence intensity (a.u.).
